First the molecules themselves.
B1: TPR 5TU (parent)
chain: GGAUCUUCUCGAUCUAACAAAAAAGACAAAUCUGCCACAAAGCUUGAGAGCAUCUUCGGAUGCAGAGGCGGCAGCCUUCGGUGGCGCGAUAGCGCCAACGUUCUCAACUAUGACACGCAAAACGCGUGCUCCGUUGAAUGGAGUUUAUCAUG

This sample is rich in variants without activity.

The variants in the data set derive from B1. In words: polymerase ribozyme fitness, log enrichment relative to wild type (log ratio); higher = more active; in vitro selection for triplet polymerase activity. A digest of the protocol: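 A single round of triplicate in vitro selection, including frozen incubation at −7 °C, was applied to PCR-built, transcribed mutant libraries of each subunit of a heterodimeric triplet polymerase ribozyme. Illumina sequencing of input and output libraries retained genotypes with ≥10 input reads and ≥1 read per output. Fitness is the base-2 logarithm of genotype enrichment divided by wild-type enrichment, from inverse-variance-weighted replicate averages.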
GGAUCUUCUCCAUCUAACAAAAAAGACAAAUCUGCCACAAAGCUUGAGAGCAUCUUCGGAUGCGGAGGCGGCAGCCUUCGGUGGCGCGGUAGCGCCAACGUUCUCAACUACGACACGCAAAACGCGUGCUCCGUUGAAUGGAGUUAAUCAUG [G11C A64G A89G U111C U146A]: the “polymerase ribozyme fitness (log ratio)” value was ≤ -4.2.
On to GGAUCUUCUCCAUCUAACAUAAAAGACAAAUCUGCCACAUAGCUUGAGAGCAUCUUCGGAUGCAGAGGCGGCAGCCUUCGGGAGCGCGAUAGAGCCAACGUUCUCAAAUAUGACACGCAAAACGCGUGCUCCGUUGAAUGGAGUUUAUCAUG [G11C A20U A40U U82G G83A C93A C108A], for which the “polymerase ribozyme fitness (log ratio)” value is ≤ -4.2.
For GGAUCUUCUCCAUCUAACAAAAAAGACAUAUCUGCCACAAAGCUUGAGAGCAUCUUCUCAUGCAGAGGCGGCAGCCAUCGGUGGCGCGAUAGCGCCAACGUUCUCAACUAUGACACGCAAAACGCGUGCUCCGUUGAAUGGAGUUUAUCAGG [G11C A29U G58U G59C U77A U151G] the value was ≤ -4.2.
As for GGAUCUUCUCCAUCUAACAAAAAAGACAAAUCUGCCACACAGCUUGAGAGCAUCUUCGGAUGCAGAGGCGGCAGCCUUCGGUGACGCGAUAGCGCCUACGUUCUCAACUAUGACACGCAAAACGCGUGCUCCGUUGAAUGGAGUUUAUCAUG [G11C A40C G84A A97U], the figure is -3.7; as for GGAUCUUCUCCAUCUAACAAAAAAGACAAAUCUGCCACAAAGCUUGAGAGCAUCUUCGGAUGCAGAGGCGGCAGCCUUCGGUGGCGCGAUUGCGCCAACGUUCUCAACUAUGACACGCAAAACGCGUGCUCCGUUGAAUGGAGUUUAUCAUG [G11C A91U], -4.11.
As for GGAUCUUCUCCAUCUAACAAAACAGACAAAUCUGCCACAAAGCUUGAGAGCAUCUUCGGAUGCAGAGGCGGCAGUCUUCGGUGGCUCGAUAGCGCCAACAGUCUAAACGAUGACACGCAAAACGCGUGCUCCGUUGAAUGGAGUUUAUCAUG [G11C A23C C75U G86U G100A U101G C105A U109G], the figure is ≤ -4.2.
In the case of GGAUCUUCUCCGUCUAACAAAAAAGACAAAUCUGCCACAAUGCUUGAGAGCAUCUUCGGAUGCAGAGGCGGCAGCAUUCGGUAGCGCGAUAGCGCCAACGUUGUCAACUAUGAAACGCAAAACGCGUGCUCCGUUGAAUGGAGUUUAUCAUG [G11C A12G A41U C76A G83A C103G C114A], the “polymerase ribozyme fitness (log ratio)” value is ≤ -4.2.
For GGAUCUUCUCCGUCUAACAAAAAAGACAAAUCUGCCACAAAGCUUGAGAGCAUCUUCGGAUGCAGAGGCGGCAGCCUUCGGGGACGCGAUAGCGCCAACGUUCUCAACUAUGACACGCAAAACGCGUGCUACGUUGAAUGGAGUUUAUCAUG [G11C A12G U82G G84A C131A] the value was ≤ -4.2; for GGAUCUUCUCCAUCUAACAAAAUAGACAAAUCUGCCACAAAGCUUGAGACCAUGUUUGGAUGCAGAGGCGGCAGCCUUCGGUGGCGCGGUAGCGCCAACGUUCUCAACUAUGACAAGCAAAACCCGUGCUCCGUUGAAAGGAGUUUAUCAUG [G11C A23U G50C C54G C57U A89G C116A G124C U139A], ≤ -4.2; for GGAUCUUCUCCAUCUAACAAAAAAGACAAAUCUGCCACUAAGCUUGAGAGCAUCUUCGGAUGCAGAGGCGGCUGCCUUCGGUGGCGCGAUAGCGCUAACGUUCUCAACUAUGACACGCAAAACGCGUGCUCCGUUGAAUGGAGUUUAUCAUG [G11C A39U A73U C96U], ≤ -4.2.
With GGAUCUUCUCCAUCUAACAAAAAAGACCAAUCUGCCACAUAGCUUGAGAGCAUCUUCGGAUGCAGAGGCGGCAGCCUUCGGUGGCGCGAUAGCGCCAACGUUCUCAACUAUGACACGCAAAACGCGUGCUCCGUUGAUUGGAGUUUAUCAUA [G11C A28C A40U A138U G152A], the “polymerase ribozyme fitness (log ratio)” value was ≤ -4.2.
Take GGAUCUUCUCCAUCUAACAAAAAAGACAAAUCUGCCACAAAGCUUGAGCGCAGCUUCGGAUGCAGAGGCGGCAGCCUUCGGUGGCGCGAUAGCGCCAACGUUCUCAACUAUGACACGCAAAACGCGUGCUCCGUUGAAUGAAGUUUAUCAUG [G11C A49C U53G G141A]: the “polymerase ribozyme fitness (log ratio)” value was ≤ -4.2.
Turning to GGAUCUUCUCCAUGUAACAAAAAAGUCAAAUCUGCCACAAAGCUUGAGAGCAUCUUCGGAUGCAGAGGCGGCAGCCUUCGGUGGCGCGAUAGCGCCAACGUUCUGAACUAUGACACGCAAAACGCGUGCUCCGGUGAAUGGAGUUUAUCAUG [G11C C14G A26U C105G U134G], the “polymerase ribozyme fitness (log ratio)” value was ≤ -4.2.
As for GGAUCUUCUCCAUCUAACGAAAAAGACAAAUCUGCCACAAAGCUUGAGAGCGUCUUCGGAUGCAGAGCCGGCAGCCUUCGGUGGCGCGAUAGCGCCGACGUUCUCAACUAUGACACGCAAAACGCGUGCUCAGCUGAAUGGAGAUUAUCAUG [G11C A19G A52G G68C A97G C132A U134C U144A], the “polymerase ribozyme fitness (log ratio)” value is ≤ -4.2.
Take GGAUCUUCUCCAUCUAACAAAAAAGACAAAUCUGCCACAACGCUUGAGAGCAUCUUCGGAUGCAGAGGCGGCAGCCUUCGGUGGCGCGAUAGCGUCAAGGUUCUCAACUAUGAAACGCAAAACGCGUGCUCCGUUGAAUGGGGUUUAUCAUG [G11C A41C C95U C99G C114A A142G]: the “polymerase ribozyme fitness (log ratio)” value was ≤ -4.2.
With GGAUCUUCUCCAUCUUACAAAGAUGACAAAUCUGCCACAAAGCUUGAGAGCAUCUUCGGAUGCAGAGGCGGCAGCCUUCGGUGGCGCGAUAUCGCCAACGUUCUCAACUAUGACGCGCAAAACGCGUGCUCCGUUGAAUGGAGUUCAUCAUG [G11C A16U A22G A24U G92U A115G U146C], the “polymerase ribozyme fitness (log ratio)” value was ≤ -4.2.
With GGAUCUUCUCCAUCUACCAAAAAAGUCAAAUCUGCCACAAAGCUUGAGAGCAUCUUCGGAUGCAGAGGCGGCAGCCUUCGGUGGCGAGAUAGCGCCAACGUUCUCAACUAUGACACGCAAAACGGGUGCUCCGUUGAAUGGAGUUUAUCAUG [G11C A17C A26U C87A C125G], the “polymerase ribozyme fitness (log ratio)” value is ≤ -4.2.
GGAUCUUCUCCAUCUAACUAAAAAGACAAAUCUGCCACAAAGCUUGAGAGCAUAUUCGCAUGCAGAGCCGGCAGCCUUCGGUGGGGCGAUAGCGCCAAGGUUCUCAACUAUGACACGCAAAACGCGUGCUCCGUUGAAUGGAGUUUAUCAUG [G11C A19U C54A G59C G68C C85G C99G]: the “polymerase ribozyme fitness (log ratio)” value is ≤ -4.2.
As for GGAUCUUCUCCAUCUAACAAAAAAGGCAAAUCUGCCACAAAGCUUGAGAGCAUCUUCGGAUGCAGAGGCGGCAGGCUUCGGUCGCGCGAUAGCGCCAACGUUCUCAACGAUGCCACGCAAAACGCGCGCUCCGUUGAAUGGAGUUUAUCAUG [G11C A26G C75G G83C U109G A113C U127C], the figure is ≤ -4.2.

(Values after the RNAGym collection of RNA variant scans (doi:10.1073/pnas.2313332121).)
